Laboratory results: the RNAGym collection of RNA variant scans (doi:10.7554/elife.90254)
Read counts are not given, so values of variants with three or more changes are uncertain.

B1: LINE1-mini (parent)
chain: GGCAGAGCUCAACACAGCGUGGCAAAGUGGCUGUGGCUAGACUGCC

Variants of: B1
Test: self-cleavage, relative activity (ratio to wild type); higher = more cleavage; in vitro, sequencing; the parent is a self-cleaving ribozyme

With GGCAGAGCUCAUGACUGCGUGGCAAAGCGGCUGUGGCUAGACUGCC as the variant, how does the self-cleavage read?
Its self-cleavage is 0.03.

With AGGAGAGCUAAACACAGCGUGGCAAAGUGACUGUGGCUAGACCGCC as the variant, how does the self-cleavage read?
Its self-cleavage is 0.05.

For GGCAGAGCUCAGCACAGACUGGCAAAGUGGCUGAGGCUAGACUGCC, which self-cleavage is on record?
The self-cleavage was 0.

Which self-cleavage does the source give for GGAAGAACUCAACACAGCGUGGCAAAGUGGCUGUGGCUAGACUGGU here?
The self-cleavage was 0.22.

For GGCAGAGCUCAACAGAGCGUGGCAAAGUGGCUGUGGCUAUUCCGCC, which self-cleavage is on record?
The self-cleavage was 0.08.

Which self-cleavage does the source give for GGCAGAGAUCAUCACAGCGUGGCAAAGUGGCUGUGGCUUGACUGCC here?
The self-cleavage was 0.37.

With GGCAGAGCACAACACAGCGUGGCAAAGUGGCUGUGGCUAAACUGGC as the variant, how does the self-cleavage read?
The self-cleavage was 0.09.

Which self-cleavage does the source give for GGCAGAGCUCAACCCACCGCGGCAAAGUGGCCGUGGCUAGACUGCC here?
Its self-cleavage is 0.05.

Which self-cleavage does the source give for GGCAGAGCUCAACACAGCGUGGCAAAAUGGCUUUGACUAGACUGCC here?
Its self-cleavage is 0.07.

With GGUAGAGCUCAACACAGCGUGGCAAGGUGGCAGUGGCUAGACUGUC as the variant, how does the self-cleavage read?
Its self-cleavage is 0.08.

Which self-cleavage does the source give for GGCAGAGCUAAACACAGCGUGGCGAUGUGGCUGUGGCUAGUCUGCC here?
The self-cleavage was 0.04.

With GGCAGAGCUCAACACAGCGUGGUAAAGUGACUGUGUCUAAACUCCC as the variant, how does the self-cleavage read?
Its self-cleavage is 0.07.

For GGCAGAUCUCAUCACAGCGUGGCAAAGUGGCAGUGGUUAGACUGCC, which self-cleavage is on record?
Its self-cleavage is 0.02.

Which self-cleavage does the source give for AGCAGAGAUCACCACAGCGUGGCAAAGUGGCGGUGGCUAUACUGCC here?
Its self-cleavage is 0.14.

Which self-cleavage does the source give for GGCACAGCUCAACAUAGCGUGGCGAAGUGGCUGUGGCUAGGGUUUC here?
The self-cleavage was 0.01.

With GGCAGAGCUCAACACAGCGUGGCAAAGAGGCUGUGACUAAACUGCC as the variant, how does the self-cleavage read?
Its self-cleavage is 0.01.

With GGCAGAGCGCAACACAGCGUGGCCAAGUGGAUGUGGCUAGACUGCC as the variant, how does the self-cleavage read?
Its self-cleavage is 0.04.

For GGCAGAGCUUAACACAGUGUGGGUAAGUGGCUGUGACUAGACUGCC, which self-cleavage is on record?
Its self-cleavage is 0.03.

Which self-cleavage does the source give for GGGAGAGCUCAACACAGCGUGGCAAAGUGGCCGUUCCUAGACUGCC here?
The self-cleavage was 0.04.

With GGACGAGCUCAACACAGCAUGGUAAACUGCCUUUGGCUAGACUGCC as the variant, how does the self-cleavage read?
The self-cleavage was 0.03.

Which self-cleavage does the source give for GGCCUAGCUCAACACAGCGUGGAAAAGUGGCUGUGGCUAGACUACC here?
Its self-cleavage is 0.08.

With GGCAGAGCUCAACACAGCAUGGCAAAGCGGGUGUGGCUAGACUGCC as the variant, how does the self-cleavage read?
The self-cleavage was 0.06.

Which self-cleavage does the source give for AACAGAGCUCGCCACACCGUGACAAAGUUGCUGUGGCUAGACUGCC here?
The self-cleavage was 0.02.

Which self-cleavage does the source give for GGCAGAGCGCAACACAGCGUGGCCUAGUGGCUGUGGCUAUACUGCC here?
The self-cleavage was 0.03.

Which self-cleavage does the source give for GGCAGAGCUCAACACAGCGUAGCAAUGUGGCUGUGGAUAGACUGGC here?
The self-cleavage was 0.08.

For GGCAGAUCUCAACCCAGCGUUGCAAAGUGGCUGUGCCUAGACUGCC, which self-cleavage is on record?
Its self-cleavage is 0.

For GGAAGAGCUCAACACAGCGUGGAAAAGUGCCUGUGGCUAGACUGCC, which self-cleavage is on record?
The self-cleavage was 0.31.

For GGCAGAGCUCAACACAGCGUGAGAAAGUCGCUGUGUCUAGACUGCC, which self-cleavage is on record?
The self-cleavage was 0.02.

For GGGAGAGCUCAACACAGCGUGGCAAUGUGGUUGUGGCUAGACUGCC, which self-cleavage is on record?
Its self-cleavage is 0.03.

With UGCAGAGAUCAACACAGCGUGGCAAAGUGGCUUUGGCUAGACUGCC as the variant, how does the self-cleavage read?
Its self-cleavage is 0.06.

Which self-cleavage does the source give for GGCAGCGCUCAACACAGCAUGGCAAAGUGGCUGGGGCUAGACUGCC here?
The self-cleavage was 0.02.

Which self-cleavage does the source give for GGUAAAGCUCAACACAGCGUGGCAAAGUGGCUGUGGCCAGACUGCC here?
The self-cleavage was 0.1.

Which self-cleavage does the source give for GGCAGAGCUCAACAAAGUGUGGCAAAGUGGCUGUGGCUAGACAGCC here?
The self-cleavage was 0.09.

Which self-cleavage does the source give for GGCAUAGCUCAACACAGCGUAGCAAAGUGGAUGUGGCUAGACUGCC here?
Its self-cleavage is 0.18.

Which self-cleavage does the source give for GGUUGCGCUCAACACAGCGUGGCAAAGUCGCUGUUGCUAGACUGCC here?
Its self-cleavage is 0.02.

Which self-cleavage does the source give for GGCAGAGCUCAACACAGCGUGGCAAAGUGGAUGUGUCUAGACUCCC here?
Its self-cleavage is 0.05.

Which self-cleavage does the source give for GGCAGAGCUCGACACAGCGUGGCAAAGUGGUUGUGGUAAGACUGCC here?
Its self-cleavage is 0.02.

Which self-cleavage does the source give for GGCAGCGCUCGACACAGCGUGGCAAAGAGGCUGUGGCUAGACUGCC here?
Its self-cleavage is 0.07.

Which self-cleavage does the source give for GCCAGAGCUCAACACAGCGUGGCAAAGUGGCUGUAGCUAGACUGGC here?
The self-cleavage was 0.02.

With GGCAGAGCUCAACACAGCGUGGCAAAGCGGGUGUUGCUAGACUGCC as the variant, how does the self-cleavage read?
Its self-cleavage is 0.05.

With GGCAGAGCUCCACAACGCGUGGCAAAGUGGCUGUGGCUAGACAGCC as the variant, how does the self-cleavage read?
Its self-cleavage is 0.04.

With GGCAGAGCUCAUCACAGCGUGGCAAAGUGGCUGUGGCUAGACUACA as the variant, how does the self-cleavage read?
Its self-cleavage is 0.07.

For GGCAGAGCUCAACGCAGCGUGGCAAAGUGUCUGUGGCUAGACUACC, which self-cleavage is on record?
Its self-cleavage is 0.45.

With GGCAGAGCUCAACACAGCGUGACAAAGUCGUUGUGGCUAGACUGAC as the variant, how does the self-cleavage read?
The self-cleavage was 0.2.

Which self-cleavage does the source give for GGCAGAGCUCAACGCUGCGUGGCAAACUGGCUGUGGGUAGACUCCC here?
The self-cleavage was 0.

For GGCAGAGCUCAAGACAGCGUGGCAAAGUGGCUGUGUCUAGACUGCA, which self-cleavage is on record?
Its self-cleavage is 0.2.

With GGCAGAGCUCAACACAGCGUUGUAAAGUGCCUGUGGCUAGACUGUC as the variant, how does the self-cleavage read?
Its self-cleavage is 0.36.

Which self-cleavage does the source give for GGCAGCGGUCAACACAGCGUGGCAAAGUUGCUGUGGCUAGACUGCA here?
Its self-cleavage is 0.01.

With GGUAGGGCUCAACAAAGCGUGGCAAAGUGGCUGUGGCUAGACUGCC as the variant, how does the self-cleavage read?
Its self-cleavage is 0.02.

With GGCAGAGCUCAACACAGGGUGGCAAAGUGGCGGUGGCUAGCCUGCC as the variant, how does the self-cleavage read?
Its self-cleavage is 0.04.

For GGCAGAGCUCAACACAGCUUGGCAUAGAGGCUGUGGCUAGACUGCC, which self-cleavage is on record?
The self-cleavage was 0.37.

For GGCAGAGUUCAAAACAGCGUGGCAACGUGGCUGUGGCUAGACUGCC, which self-cleavage is on record?
The self-cleavage was 0.04.

With GGCAUAGCUCAACACAACGUGGCAAAGUGACUGUGGCUAGACUGCC as the variant, how does the self-cleavage read?
Its self-cleavage is 0.04.

Which self-cleavage does the source give for GGCAGACCUUAACACAGCGUGGCAGACUGGCUGUGUCUAGAUUGCC here?
Its self-cleavage is 0.

Which self-cleavage does the source give for GGCAGAGGUCAACACAGCGUGGCAAAGCGGCUGUGGCUAAACUGCC here?
The self-cleavage was 0.09.

With GGGAGAGCUCAACACAGCGUGGCAAAGUGGCUCUGGCUACACUGCC as the variant, how does the self-cleavage read?
Its self-cleavage is 0.12.
